Measurements as given in a compilation of properties of binary mixtures (doi:10.1021/acs.jced.8b00965).
The densities may have been worked out from excess volumes.

Test: xn = mol fraction of the nth substance listed
Conditions: 100 kPa

Work on `C[N+](C)(C)CCC[n+]1ccccc1.N#C[N-]C#N.N#C[N-]C#N` + CO yielded a mass density (293.15 K, x1 = 0.0999) of 968 kg/m3, a mass density (293.15 K, x1 = 0.2001) of 1040.9 kg/m3 and a mass density (293.15 K, x1 = 0.3002) of 1080.4 kg/m3. The mass density (293.15 K, x1 = 0.5002) was 1120.5 kg/m3, the mass density (293.15 K, x1 = 0.6001) was 1131.8 kg/m3 and the mass density (293.15 K, x1 = 0.7003) was 1140.3 kg/m3. For the same compound, the mass density (293.15 K, x1 = 0.7998) was 1147 kg/m3, the mass density (293.15 K, x1 = 1) was 1158 kg/m3 and the mass density (303.15 K, x1 = 0.0999) was 960.6 kg/m3. For the same compound, the mass density (303.15 K, x1 = 0.2001) was 1034.3 kg/m3, the mass density (303.15 K, x1 = 0.3002) was 1074.1 kg/m3 and the mass density (303.15 K, x1 = 0.3999) was 1098.2 kg/m3. It also gave a mass density (303.15 K, x1 = 0.6001) of 1125.8 kg/m3, a mass density (303.15 K, x1 = 0.7998) of 1141.2 kg/m3 and a mass density (303.15 K, x1 = 0.8995) of 1147.2 kg/m3. The mass density (303.15 K, x1 = 1) was 1152.1 kg/m3, the mass density (313.15 K, x1 = 0.2001) was 1027.9 kg/m3 and the mass density (313.15 K, x1 = 0.3002) was 1067.8 kg/m3. For the same compound, the mass density (313.15 K, x1 = 0.6001) was 1119.8 kg/m3, the mass density (313.15 K, x1 = 0.7003) was 1128.5 kg/m3 and the mass density (313.15 K, x1 = 0.8995) was 1141.5 kg/m3. It also gave a mass density (323.15 K, x1 = 0.0999) of 946.8 kg/m3, a mass density (323.15 K, x1 = 0.2001) of 1021.4 kg/m3 and a mass density (323.15 K, x1 = 0.7003) of 1122.7 kg/m3. For the same compound, the mass density (323.15 K, x1 = 0.7998) was 1129.7 kg/m3, the mass density (323.15 K, x1 = 0.8995) was 1135.8 kg/m3 and the mass density (323.15 K, x1 = 1) was 1140.7 kg/m3. For the same compound, the mass density (333.15 K, x1 = 0.3002) was 1055.6 kg/m3, the mass density (333.15 K, x1 = 0.5002) was 1096.5 kg/m3 and the mass density (333.15 K, x1 = 0.7003) was 1117 kg/m3. It also gave a mass density (333.15 K, x1 = 0.7998) of 1124.1 kg/m3, a mass density (333.15 K, x1 = 0.8995) of 1130.2 kg/m3 and a mass density (333.15 K, x1 = 1) of 1135.1 kg/m3.
`CO` + C[N+](C)(C)CCC[n+]1ccccc1.N#C[N-]C#N.N#C[N-]C#N showed a mass density (293.15 K, x2 = 0) of 791.3 kg/m3, a mass density (303.15 K, x2 = 0) of 781.9 kg/m3 and a mass density (313.15 K, x2 = 0) of 772.4 kg/m3. It also gave a mass density (323.15 K, x2 = 0) of 762.7 kg/m3 and a mass density (333.15 K, x2 = 0) of 752.9 kg/m3.
With `CO` + C[N+](C)(C)CCC[N+]1(C)CCCCC1.N#C[N-]C#N.N#C[N-]C#N the mass density (303.15 K, x2 = 0) was 781.9 kg/m3, the mass density (313.15 K, x2 = 0) was 772.4 kg/m3 and the mass density (333.15 K, x2 = 0) was 752.9 kg/m3.
In the case of `C[N+](C)(C)CCC[N+]1(C)CCCCC1.N#C[N-]C#N.N#C[N-]C#N` + CO, the mass density (293.15 K, x1 = 0.0998) was 958 kg/m3, the mass density (293.15 K, x1 = 0.2001) was 1020 kg/m3 and the mass density (293.15 K, x1 = 0.2999) was 1050.5 kg/m3. The mass density (293.15 K, x1 = 0.4002) was 1069.8 kg/m3, the mass density (293.15 K, x1 = 0.5001) was 1083.3 kg/m3 and the mass density (293.15 K, x1 = 0.7003) was 1100.9 kg/m3. It also gave a mass density (293.15 K, x1 = 0.8002) of 1106.6 kg/m3, a mass density (293.15 K, x1 = 0.8991) of 1110.3 kg/m3 and a mass density (293.15 K, x1 = 1) of 1113.2 kg/m3. For the same compound, the mass density (303.15 K, x1 = 0.0998) was 951 kg/m3, the mass density (303.15 K, x1 = 0.2999) was 1044.7 kg/m3 and the mass density (303.15 K, x1 = 0.4002) was 1064.1 kg/m3. For the same compound, the mass density (303.15 K, x1 = 0.5001) was 1077.6 kg/m3, the mass density (303.15 K, x1 = 0.6001) was 1087.6 kg/m3 and the mass density (303.15 K, x1 = 0.7003) was 1095.3 kg/m3. It also gave a mass density (303.15 K, x1 = 0.8002) of 1101.1 kg/m3, a mass density (303.15 K, x1 = 0.8991) of 1105.1 kg/m3 and a mass density (303.15 K, x1 = 1) of 1107.6 kg/m3. The mass density (313.15 K, x1 = 0.0998) was 944 kg/m3, the mass density (313.15 K, x1 = 0.2001) was 1007.7 kg/m3 and the mass density (313.15 K, x1 = 0.2999) was 1038.5 kg/m3. For the same compound, the mass density (313.15 K, x1 = 0.4002) was 1058.2 kg/m3, the mass density (313.15 K, x1 = 0.5001) was 1071.9 kg/m3 and the mass density (313.15 K, x1 = 0.6001) was 1082.1 kg/m3. It also gave a mass density (313.15 K, x1 = 0.7003) of 1089.8 kg/m3, a mass density (313.15 K, x1 = 0.8002) of 1095.7 kg/m3 and a mass density (313.15 K, x1 = 0.8991) of 1100 kg/m3. For the same compound, the mass density (313.15 K, x1 = 1) was 1102.1 kg/m3, the mass density (323.15 K, x1 = 0.2001) was 1001.3 kg/m3 and the mass density (323.15 K, x1 = 0.2999) was 1032 kg/m3. The mass density (323.15 K, x1 = 0.4002) was 1052.1 kg/m3, the mass density (323.15 K, x1 = 0.6001) was 1076.4 kg/m3 and the mass density (323.15 K, x1 = 0.7003) was 1084.3 kg/m3. The mass density (323.15 K, x1 = 0.8002) was 1090.4 kg/m3, the mass density (323.15 K, x1 = 0.8991) was 1094.7 kg/m3 and the mass density (323.15 K, x1 = 1) was 1096.7 kg/m3. The mass density (333.15 K, x1 = 0.0998) was 930.1 kg/m3, the mass density (333.15 K, x1 = 0.2001) was 994.3 kg/m3 and the mass density (333.15 K, x1 = 0.2999) was 1025.8 kg/m3. For the same compound, the mass density (333.15 K, x1 = 0.4002) was 1046.1 kg/m3, the mass density (333.15 K, x1 = 0.5001) was 1060.3 kg/m3 and the mass density (333.15 K, x1 = 0.6001) was 1070.8 kg/m3. The mass density (333.15 K, x1 = 0.7003) was 1078.8 kg/m3, the mass density (333.15 K, x1 = 0.8991) was 1089.6 kg/m3 and the mass density (333.15 K, x1 = 1) was 1091.4 kg/m3.
